Out of some 46,000 compounds screened, about 60 (0.1%) were called active. Another 3% or so got no clear call; they are omitted. Calls come from the whole dose curve; as a rule, active = well fitted inhibition curve with a large enough effect; inconclusive = small, poorly fitted or top-dose-only effect; inactive = no such curve, though single readings can be large or run the other way. The list shows a part of the results.
Experiment: Primary qHTS assay for Inhibitors of ovarian cancer metastasis using an organotypic tumor microenvironment (TME) model.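 For activity change, negative = inhibition: plate controls were DMSO wells for no effect and tomatine positive control wells for full effect.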 Note: nearly all actives have a fitted effect of over 65% in size.
Details: SKOV3ip1-GFP adhesion/invasion on 3D omental model, fluorescence; series mostly up to 45.8 µM; activity change, negative = inhibition: at the top concentration
Summary of the method: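 Adhesion/invasion was scored as fixed GFP-labeled SKOV3ip1 cell counts (488/509 nm), normalized to DMSO and tomatine controls. Cancer cells in serum-free medium, with four compound doses (0.36-46 umol/L), sat 2 hr at RT then 16 hr at 37 C on a 48 hr fibroblast/mesothelial/ECM culture.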

Activity change, negative = inhibition, inactive:
Cc1ccc(C(=O)CSc2nc(C)cc(C)c2C(=O)Nc2cccc(C)c2)cc1 -0.245%
CCc1cccc(CC)c1NC(=O)CN(C)S(=O)(=O)c1ccc2c(c1)n(C)c(=O)c(=O)n2C 5.19%
CSc1nn(Cc2ccc(F)cc2)c(N(C(C)=O)C(C)=O)c1S(=O)(=O)c1ccccc1 0.615%
CCC(=O)N1CCc2cc(Br)cc(S(=O)(=O)N3CCCC(C(=O)NCc4ccc(C)cc4)C3)c21 (stereo unspecified) 35.7%
Cc1ccc(-n2c3nc(=O)n(C)c(=O)c-3cc3ccccc32)c(C)c1 -0.132%
Cc1cccc(NC(=O)CSc2cn(CC(=O)N3CCOCC3)c3ccccc23)c1C -6.43%
Cc1ccc2nc(COc3ccccc3NC(=O)Nc3ccc(F)c(Cl)c3)cc(=O)n2c1 5.97%
CC(=O)N1CCCc2ccc(NC(=O)c3ccc(OC(C)C)cc3)cc21 4.76%
Cc1nc2c3ccccc3nc(NNC(=O)CCC(=O)N3CCN(c4ccc(F)cc4)CC3)n2n1 0.0808%
O=C(Nc1ccc(OC(F)(F)F)cc1)c1cc(-c2ccc(Cl)cc2)on1 4.7%
Cc1cc2c(cc1S(=O)(=O)NCc1ccc(F)cc1)OCCN2C -2.22%
CCCCN(Cc1cc2cc(C)ccc2[nH]c1=O)C(=O)c1cccc(Cl)c1 0.158%
CCc1ccc(NC(=O)Cn2ncn3c(cc4ccccc43)c2=O)cc1 -7.02%
Cc1ccc2c(=O)cc(C(=O)Nc3c(C)cccc3C)oc2c1 -8.67%
COc1ccc(/C=C/c2nc(C#N)c(N3CCCCC3)o2)cc1OC -19%
COc1cccc2cc(-c3nc4sc5c(c4c(=O)[nH]3)CCC(C(C)(C)C)C5)c(=O)oc12 (stereo unspecified) 6.92%
COc1ccc(S(=O)(=O)c2c(Nc3cccc(Cl)c3)sc(C(=O)c3ccccc3)c2N)cc1 2.89%
Cc1ccc2nc(Cl)c3cc(C(=O)N4CCCCC4)sc3c2c1 -15.7%
COC(=O)c1cc(S(=O)(=O)NCC2CCN(Cc3cccc(F)c3)CC2)cn1C 5.59%
CNC(=O)C1CCC(Cn2c(=O)c3sccc3n(CC(=O)N3CCC(C)CC3)c2=O)CC1 (stereo unspecified) 14.6%
Cn1c(=O)c2c(nc(SCC(=O)Nc3ccc(F)c(F)c3)n2Cc2ccccc2F)n(C)c1=O -2.55%
COc1ccc(CCNC(=O)c2cc(=O)c3cc(C)c(C)cc3o2)cc1OC -5.84%
COc1ccc(N2CCN(Cc3nc4c(c(=O)[nH]c(=O)n4C)n3Cc3ccccc3F)CC2)cc1 4.34%
COc1ccc(N(C(=O)Cn2nnc3ccccc32)C(C(=O)NCc2ccccc2)c2ccc(F)cc2)cc1 (stereo unspecified) -6.97%
Cn1nnc2c(NCc3c(F)cccc3F)ncnc21 -27.2%
COc1ccc(CCNC(=O)C(=O)NCC(c2cccs2)S(=O)(=O)c2ccc(F)cc2)cc1 (stereo unspecified) 3.45%
O=C(NCCc1ccc(Cl)cc1)C1CCN(S(=O)(=O)c2ccc3[nH]ccc3c2)CC1 7.73%
CCOC(=O)c1c(C)oc2nc(C)nc(NCCCN3CCN(c4cc(C)ccc4C)CC3)c12 -2.55%
Cc1ccc(CCNC(=O)c2ccc(Nc3nc4ccccc4n4nnnc34)cc2)cc1 1.63%
COc1cccc(/C=C/c2nc(C#N)c(N3CCN(C)CC3)o2)c1 -1.71%
FC(F)(F)c1cccc(Nc2c3c(nc4ccc(Cl)cc24)CCC3)c1 -6.04%
CC(NC(=O)c1ccc2c(c1)sc1nc(-c3ccc(F)cc3)cn12)C12CC3CC(CC(C3)C1)C2 (stereo unspecified) 6.25%
COc1cc(OC)c(NC(=O)CCc2c(C)nc3c4c(C)cc(C)nc4nn3c2C)cc1Cl -1.44%
CCCCCN1C(C(=O)c2ccccc2)=C(OC(=O)CC)c2ccccc2S1(=O)=O -23.3%
CC1Cn2c(C(=O)NCc3ccccc3Cl)cc3cccc(c32)S1 (stereo unspecified) -18.7%
CCC(Sc1nc2n[nH]c(C)c2c(=N)n1-c1ccccc1Cl)C(=O)N(CC)CC (stereo unspecified) 4.69%
N#Cc1cc2c(=O)n3ccccc3nc2n(-c2nnc(SCc3ccccc3Cl)s2)c1=O 0.796%
Cc1cccc(NC(=O)c2cc3c(=O)n(Cc4cccnc4)ccc3nc2C)c1 4.24%
Cc1ccccc1OCC(=O)Nc1ccccc1OCc1cc(=O)n2ccccc2n1 4.7%
COc1ccnc(CS(=O)c2nc3ccc(OC(F)F)cc3[nH]2)c1OC (stereo unspecified) 0.847%
O=C(NCC(c1cccs1)S(=O)(=O)c1cccs1)c1c(F)cccc1F (stereo unspecified) -2.07%
CCCOc1ccc(C(=O)N(Cc2ccco2)Cc2ccco2)cc1 -20.3%
COc1ccc(CCNC(=O)CCc2c(C)nc3cc(-c4cccc(F)c4)nn3c2C)cc1OC -24.9%
Cc1ccc(S(=O)(=O)NCCc2nnc3ccc(SCC(=O)Nc4ccc(F)cc4F)nn23)cc1 -8.18%
CCOC(=O)Cn1c(=O)n(CC2CCCO2)c2nc(-c3cc(OC)ccc3OC)nc(C(N)=O)c21 (stereo unspecified) 9.75%
COc1ccccc1-n1c(=O)n(C)c2c(C(N)=O)nc(-c3cccc(OC)c3OC)nc21 20.1%
Cc1cc(C)c2c(CC(=O)Nc3cc(C(F)(F)F)ccc3Cl)coc2c1 -7.44%
COc1ccc(C(=O)Nc2cccc(C(=O)OCc3cc(=O)n4c5c(sc4n3)CCCC5)c2)cc1 17.8%
COc1cccc(CSc2nc3n(n2)C(CC(C)C)C(C(=O)Nc2ccccc2C)=C(C)N3)c1 (stereo unspecified) 3.55%
Cc1ccc(CCNC(=O)CCCc2nnc3n(C)c(=O)c4sccc4n23)cc1 6.85%
CCN(CC)c1nn2c(=O)c(C(=O)NCCc3cccc(C)c3)cnc2s1 -0.426%
CCCN1CCc2nc(N3CCN(C)CC3)ncc2C1 -11.9%
O=C(C1CCCN(S(=O)(=O)c2cccc3nsnc23)C1)N1CCN(c2cccc(Cl)c2)CC1 (stereo unspecified) 37.5%
CCN1C(=O)C(O)(c2c[nH]c3ccccc23)c2cc(Br)ccc21 (stereo unspecified) 2.12%
CCc1cccc(C)c1NS(=O)(=O)c1ccc2c(c1)CC(C)N2C(=O)C1CC1 (stereo unspecified) 7.81%
Cc1ccc(CNc2nc3ccccc3n3cnnc23)cc1 -9.01%
Cc1csc2nc(COC(=O)c3ccc(NC(=O)C(C)Oc4ccccc4)cc3)cc(=O)n12 (stereo unspecified) -4.25%
CC(C)Cc1ccc(C(C)C(=O)O)cc1 (stereo unspecified) 0.648% [at 23.2 µM]
CCC(=O)Nc1nnc(S(=O)(=O)N2c3ccccc3CC2C)s1 (stereo unspecified) -3.92%
Cc1ccc2oc3c(c(=O)c2c1)C(c1ccc(O)cc1)N(c1nc(C)c(C)s1)C3=O (stereo unspecified) 1.93%
COc1ccccc1C(=O)N(c1ccc(C)cc1)S(=O)(=O)c1ccc(Cl)cc1 -15.3%
CCC(=O)N1c2ccccc2CC1C(=O)NCc1cc(Br)ccc1OC (stereo unspecified) 5.26%
Cc1cccc(NC(=O)C2CCCN2S(=O)(=O)c2ccc3c(c2)n(C)c(=O)c(=O)n3C)c1 (stereo unspecified) 1.88%
O=C(NCc1cccc(F)c1)c1ccccc1NC(=O)c1nsc2ccccc12 0.409%
COc1ccc(NC(=O)c2cnc(N3CCCC3)nc2)cc1OC 2.87%
COc1ccc(-n2c(SCC(=O)NCc3ccc(F)cc3)nc3c([nH]c4ccccc43)c2=O)cc1 -5.85%
CC(C)N1[N]C(=C2C=c3cc(O)ccc3=N2)c2c(N)ncnc21 19.7%
O=C(c1ccccc1)N1CCc2cc(CNS(=O)(=O)c3ccc(Cl)s3)ccc21 -9.59%
O=C(CCSCc1cccc(Cl)c1)NCCc1ccc(Cl)cc1 -6.1%
Cc1nn2cc(-c3ccc(OC(C)C)cc3)nc2s1 3.31%
Cn1c(=O)n(C)c2cc(N3CCOCC3)c(NS(=O)(=O)c3cccc(C#N)c3)cc21 0.041%
CC(=O)Nc1cccc(NC(=O)Cn2cnc3c(oc4ccccc43)c2=O)c1 -16.4%
Cc1oc(-c2ccc(Cl)cc2)nc1Cn1c(=O)cc(C)c2c(C)nn(-c3ccccc3)c21 1.97%
Cc1cccc(-c2nc3c(cnn3-c3ccccc3)c(=O)n2-c2ccc(Cl)cc2)c1 2.09%
Cc1ccc(CNC(=O)CSc2nc3ccccc3nc2Cc2ccc(C)cc2)cc1 19.9%
CCOc1ccc(NC(=O)c2c(C)oc3nc(C)nc(N4CCOCC4)c23)cc1 2.25%
Cc1ccc(CCNC(=O)C2CCN(S(=O)(=O)c3ccc4c(ccn4C)c3)CC2)cc1 -2.3%
COc1ccc(S(=O)(=O)NCC(c2ccco2)S(=O)(=O)c2cccs2)cc1F (stereo unspecified) 7.42%

outcome, inactive:
CCSc1nc(-c2ccc(OC)cc2)nc2c1Cc1c(CO)cnc(C)c1O2
Cc1cc(C)c(Cn2c(=O)n(CCCC(=O)NCc3ccc4c(c3)OCO4)c(=O)c3sccc32)c(C)c1
Cn1c(=O)c2c(-c3ccc(Cl)cc3)n(CCc3ccccc3)cc2n(C)c1=O
Cc1ccc(-n2ncc(C(=O)NCc3ccco3)c2C2CCN(C(=O)OC(C)(C)C)CC2)cc1
COc1ccc(-c2noc(CNC(=O)COc3cccc(C)c3C)n2)cc1
O=C(COCc1cc(-c2ccc3c(c2)OCO3)on1)Nc1cc(Cl)ccc1O
COc1ccc(-c2nc(CSCC(=O)NCc3ccccc3Cl)c(C)o2)cc1OC
COc1cc(NC(=O)C2CCN(S(=O)(=O)c3c(C)noc3/C=C/c3ccccc3F)CC2)cc(OC)c1OC
COc1ccc(NC(=O)CCn2cnc3onc(-c4ccc(F)cc4)c3c2=O)cc1OC
CCN(CCCNC(=O)Cn1ncc2c([nH]c3ccc(C)cc32)c1=O)c1ccccc1
COc1ccc(OC(=O)c2nc(SCc3ccccc3C)ncc2Cl)cc1
CC(C)c1nn2c(=O)cc(COC(=O)c3ccc(NC(=O)c4cccs4)cc3)nc2s1
Cc1ccc2nc(-c3ccccn3)c(Nc3ccccc3C)n2c1
Cc1cccc(Cn2c(=O)n(-c3ccccc3C)c(=O)c3c2c2cc(C)ccc2n3C)c1
COc1ccc(S(=O)(=O)NCCc2csc3nc(-c4ccccc4)nn23)cc1OC
Cc1cc(C)c2oc(-c3cccc(NC(=O)c4ccc(-c5cccc([N+](=O)[O-])c5)o4)c3)nc2c1
CCCC1=Nc2cc(C(=O)N3CCC(C(=O)OCC)CC3)ccc2Sc2ccccc21
Cc1ccc(-c2nc3c4c(-c5ccccc5)c(-c5ccccc5)oc4ncn3n2)cc1

From PubChem BioAssay AID1963576 (National Center for Advancing Translational Sciences (NCATS), 2024)
